Measured values from PubChem BioAssay AID485294 (National Center for Advancing Translational Sciences (NCATS), 2010).
Hit rate of the full screen: of about 370,000 compounds, about 150 (0.041%) were called active. The inconclusive results got no clear call from the source; some entries with a clear call stand among them for comparison. The call rests on the fitted dose curve; in most records, active means well fitted inhibition curve with a large enough effect; inconclusive means small, poorly fitted or top-dose-only effect; inactive means flat fitted curve, though single readings scatter. No potency is given beside an inconclusive call; the fits are too rough.

target: Beta-lactamase (Escherichia coli (strain K12)) (UniProt P00811); assay: qHTS Inhibitors of AmpC Beta-Lactamase (assay with detergent); conditions: AmpC hydrolysis of nitrocefin, absorbance 480 nm, 0.01% Triton; activity change, negative = inhibition: at 114 µM (top of the series); further: nearly all actives have a fitted effect of over 25% in size;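 on activity change, negative = inhibition: 0% = no-compound wells and -100% = no-enzyme wells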
Chain of UniProt P00811 (P00811 whole entry, looked up): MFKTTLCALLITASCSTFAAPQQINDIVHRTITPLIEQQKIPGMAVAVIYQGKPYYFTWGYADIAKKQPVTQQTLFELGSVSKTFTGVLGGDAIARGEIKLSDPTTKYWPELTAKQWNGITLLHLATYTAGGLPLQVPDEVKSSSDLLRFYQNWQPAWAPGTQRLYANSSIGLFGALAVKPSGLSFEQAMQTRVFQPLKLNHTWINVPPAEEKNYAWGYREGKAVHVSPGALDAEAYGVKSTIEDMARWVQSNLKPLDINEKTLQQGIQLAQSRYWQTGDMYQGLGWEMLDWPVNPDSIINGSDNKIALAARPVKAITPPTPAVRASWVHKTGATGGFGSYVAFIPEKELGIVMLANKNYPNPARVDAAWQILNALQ
Procedure, shortened: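 20 mM phosphate pH 7.0 + 0.01% (detergent screen) or 0.0001% Triton X-100; 5.3 nM AmpC reagent; cpd preinc 15 min RT; nitrocefin (800 uM stock) to start; A480 q20 s × 4 min; Activity was normalised to no-enzyme and no-compound control wells.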
Potency means the concentration at half of the fitted maximal effect; tags describe the fitted curve by direction and shape.

SMILES | Potency | activity change, negative = inhibition
CC(=O)N1N=C(c2ccccc2)CC1c1ccc(F)cc1 (stereo not given) | inconclusive [inhibitor, full curve, poor fit] | –
Nc1ccc(-c2nc3ccc(N)cc3[nH]2)cc1 | – | inactive: -13.2%
Cc1ccc(-c2nnn(CC(=O)N(CC(=O)NC(C)C)c3cnc4ccccc4c3)n2)o1 | inconclusive [inhibitor, partial curve, poor fit] | –
O=C(CCc1ccccc1)Nc1nc2nc(-c3ccccc3)cc(=O)n2[nH]1 | inconclusive [inhibitor, full curve, poor fit] | –
O=C(Nc1ccccc1F)c1ccc(CSc2ncccn2)cc1 | inconclusive [inhibitor, full curve, poor fit] | –
COc1ccccc1N(CC1CO1)S(=O)(=O)c1ccccc1 (stereo not given) | inconclusive [inhibitor, full curve] | –
Cn1nc(-c2ccccc2)cc1NS(=O)(=O)c1ccccc1 | inconclusive [inhibitor, partial curve, poor fit] | –
O=C(CSc1nnc(-c2cccc(F)c2)o1)NC1CCCC1 | inconclusive [inhibitor, full curve] | –
CCC(C)NC(=O)CCc1nc2ccccc2n1-c1ccccc1 (stereo not given) | inconclusive [inhibitor, single point] | –
Cc1ccc(OCCOCCNC(C)C)c(Br)c1 | inconclusive [inhibitor, full curve, poor fit] | –
CCN(C(=O)Nc1cn(CC(C)C)c(=O)c2ccccc12)c1cc(C)ccc1C | – | inactive: -3.81%
Cc1cc2[nH]c(=O)c(=O)[nH]c2cc1S(=O)(=O)Nc1cccc(F)c1 | inconclusive [inhibitor, full curve, poor fit] | –
COc1cccc(C(=O)NC2=NCCS2)c1 | inconclusive [inhibitor, partial curve, poor fit] | –
CC(=O)N1C(C(=O)O)CSC1c1ccc(C)cc1 (stereo not given) | inconclusive [inhibitor, partial curve] | –
CCOC(=O)CSc1nc(-c2ccccc2)nc2ccccc12 | inconclusive [inhibitor, partial curve, poor fit] | –
COc1ccc(Cl)cc1NC(=O)CN(C)C(=O)Cc1ccsc1 | inconclusive [inhibitor, partial curve, poor fit] | –
C=CCn1c(N)c(C(=O)OC(C)(C)C)c2nc3ccccc3nc21 | inconclusive [inhibitor, partial curve, poor fit] | –
COC(=O)c1ccc(SC)cn1 | inconclusive [inhibitor, partial curve] | –
Cc1cccc2cc(C#N)c(NCc3ccccc3)nc12 | – | inactive: 1.4%
CN(CC(=O)Nc1ccc(N2CCOCC2)cc1)C(=O)CSc1ccc(F)cc1 | inconclusive [inhibitor, full curve, poor fit] | –
COc1cccc(-c2nc(CS(=O)CC(=O)O)c(C)o2)c1 (stereo not given) | – | inactive: -1.17%
COc1ccc(Br)c(C(=O)NC2CCCC2)c1 | – | inactive: -11.6%
O=C(Nc1cccc(Cl)c1)c1ccc2c(c1)CCN2S(=O)(=O)c1ccccc1 | inconclusive [inhibitor, single point] | –
CCOC(=O)C(O)(c1ccc(N(CC)C(=O)COc2ccccc2)cc1)C(F)(F)F (stereo not given) | inconclusive [inhibitor, full curve, poor fit] | –

SMILES | Potency | activity change, negative = inhibition
COC(=O)c1c(NC(=O)/C(C#N)=C/c2ccccc2)sc2c1CCC2 | – | inactive: 14.1%
Cc1cccc(Cn2nc(-n3cccc3)c3c(C)cc(C)nc32)c1 | inconclusive [inhibitor, full curve, poor fit] | –
COc1cccc(NC(=O)c2ccc(-c3nc(COc4ccccc4)c(C)o3)cc2)c1 | – | inactive: 10.4%
CC(=O)c1ccc(OCCOc2ccc(C#N)cc2)cc1 | inconclusive [inhibitor, single point] | –
COc1cc(C(=S)NC2CCCCC2)ccc1O | inconclusive [inhibitor, full curve, poor fit] | –
CCOC(=O)c1ccc(NC(=O)CSc2ncccn2)cc1 | inconclusive [inhibitor, partial curve] | –
CCO/N=C(/C)c1c(O)c(C)c(-c2ccccc2)n(-c2ccccc2)c1=O | inconclusive [inhibitor, full curve] | –
C/C=C\C=C/C(=O)Nc1cccc(C2=NOC3(C2)C[C@@H](C(N)=O)N(C(=O)c2ccc(Cl)cc2)C3)c1 (stereo not given in full) | – | inactive: -3.17%
COc1ccc(CC(=O)OC(C)C(=O)NC2CCCCC2C)cc1 (stereo not given) | inconclusive [inhibitor, partial curve, poor fit] | –
CN(Cc1ccc(Cl)cc1)C(=O)c1ccc(S(=O)(=O)NCc2ccco2)cc1 | inconclusive [inhibitor, full curve, poor fit] | –
Cc1ccc(S(=O)(=O)N(C)c2ccc(OCC(=O)NCc3ccco3)cc2)cc1 | – | inactive: 1.83%
O=C(NCCc1ccccc1)c1ccc(Cl)nc1 | inconclusive [inhibitor, partial curve, poor fit] | –
CC(=O)c1cccc(NC(=O)COc2cc3oc(=O)c(CC(C)O)c(C)c3cc2Cl)c1 (stereo not given) | – | inactive: -8.05%
COc1ccc(OCC(=O)Nc2c3c(nn2-c2ccccc2)CS(=O)(=O)C3)cc1 | – | inactive: -1.76%
O=C(NC1(C(F)(F)F)C(=O)Nc2c1c(=O)[nH]c(=O)n2-c1ccc(Cl)cc1)c1ccccc1F (stereo not given) | – | inactive: 3.68%
Cc1ccc(C2=NC(=O)/C(=C/c3cc(O)c(O)c(Br)c3)S2)cc1 | – | inactive: 1.55%
CCN1CCN(CCC(=O)Nc2ccccc2C)CC1 | inconclusive [inhibitor, full curve, poor fit] | –
CN(C)/C=C(\C#N)C(=O)Nc1ccccc1 | inconclusive [inhibitor, partial curve, poor fit] | –
COc1ccc(CCNC(=O)C2CCN(S(=O)(=O)c3cc(OC)ccc3OC)CC2)cc1 | inconclusive [inhibitor, full curve, poor fit] | –
CNc1ccncc1S(=O)(=O)NC | inconclusive [inhibitor, partial curve, poor fit] | –
CCC12CN3CCN(CC(C3)C1O)C2 (stereo not given) | inconclusive [inhibitor, full curve, poor fit] | –
COc1cc(OC)cc(C(=O)NC2=NCCS2)c1 | – | inactive: -13.2%
CN(CC(=O)Nc1ccc(S(=O)(=O)N2CCCC2)cc1)Cc1ccc(Cl)cc1 | inconclusive [inhibitor, partial curve, poor fit] | –
CCOC(=O)c1cc(C(=O)OCC)cc(-n2cc(O)c(C(=O)OCC)n2)c1 | – | inactive: -1.19%

SMILES | Potency | activity change, negative = inhibition
CC(=O)c1cccc(N=Cc2c(O)ccc3ccccc23)c1 | inconclusive [inhibitor, full curve, poor fit] | –
COc1ccc(-c2nc(CSCC(=O)NCCc3ccccc3)c(C)o2)cc1 | inconclusive [inhibitor, single point] | –
CCCCN(C(=O)C1=NN(c2cc(C)ccc2C)C(=O)CC1)c1c(N)n(CCC)c(=O)[nH]c1=O | inconclusive [inhibitor, full curve, poor fit] | –
Cc1cc(C)nc(NC(=O)c2cc([N+](=O)[O-])cc([N+](=O)[O-])c2)n1 | inconclusive [inhibitor, full curve, poor fit] | –
CC(C)C1Oc2ccccc2N(CC(=O)N(C)C2CCCCC2)C1=O (stereo not given) | – | inactive: 1.23%
Fc1ccc(NC(=S)NCc2ccccn2)cc1 | – | inactive: 0.615%
Cc1cc(C)c(C)c(S(=O)(=O)Nc2ccc(OCC(=O)O)cc2)c1C | inconclusive [inhibitor, full curve, poor fit] | –
Clc1ccc(CN2CCC(CNc3ncnc4onc(-c5ccc(Cl)cc5)c34)CC2)cc1 | – | inactive: -2.54%
O=C(Cn1c(=O)oc2ccccc21)NC(=O)NCc1ccccc1 | inconclusive [inhibitor, full curve, poor fit] | –
Cc1nn(CC(=O)N(C)C)c(=O)c2ccccc12 | inconclusive [inhibitor, full curve] | –
Cc1cc(C)n2nc(SCC3COc4ccccc4O3)nc2n1 (stereo not given) | – | inactive: -0.396%
CN1CCN(C(=O)c2ccccc2NC(=O)C(C)(C)C)CC1 | inconclusive [inhibitor, single point] | –
O=C(/C=C/c1ccco1)NC(=S)Nc1cccc([N+](=O)[O-])c1 | – | inactive: -1.8%
CNC(=O)C1CCC(Cn2c(=O)c3sccc3n(CC(=O)NCc3ccc(OC)cc3)c2=O)CC1 (stereo not given) | – | inactive: 11.5%
Oc1ccccc1Nc1nc(NCc2ccco2)c2ccccc2n1 | – | inactive: -4.89%
O=C(CSc1ccccc1F)NC1CCS(=O)(=O)C1 (stereo not given) | inconclusive [inhibitor, full curve, poor fit] | –
OCCN(Cc1ccccc1)Cc1cccc(F)c1 | inconclusive [inhibitor, full curve, poor fit] | –
COc1ccccc1C(=O)N(Cc1nc(-c2ccc(Cl)cc2)no1)C(C)C | inconclusive [inhibitor, full curve, poor fit] | –
Cc1ccc(NC(=O)c2c(Cl)n(C)c3ccccc23)cc1 | – | inactive: 4.51%
CC(CCc1ccco1)NC(=O)Cn1ncc2c1-c1ccccc1OC2 (stereo not given) | inconclusive [inhibitor, full curve, poor fit] | –
COC(=O)c1c(C(=O)OC)c(-c2cccc(Cl)c2)n2c1CS(=O)C2 (stereo not given) | inconclusive [inhibitor, full curve, poor fit] | –
COc1cccc(C(=O)CSc2nnnn2C2CCCCC2)c1 | – | inactive: -2.81%
